# Results: PubChem BioAssay (Tox21)
# “And” between values parts separate entries of the source, which are not always exact repeats. Equal values may be shown once. The shares of active, inactive and inconclusive entries below differ from those in the screen. For some assays here: Potencies beside an inconclusive call are fits to weak or partial responses and may not hold up. The source made the active and inactive calls. Unless noted, calls follow the shape of the dose curve; as a rule, active = well fitted curve in the direction sought with a large enough effect in the repeat runs; inconclusive = weak or mixed curves; inactive = no such curve, though single readings can be large; an effect the other way counts as inactive or inconclusive.
# How the values were obtained:
# [1] = qHTS assay to identify small molecule antagonists of the retinoid acid receptor (RAR) signaling pathway - cell viability counter screen (AID 1159551); also: nearly all actives have a fitted effect of over 35% in size; also: potency is read from the fitted curve at half-maximal effect
# In short: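 Cytotoxicity counter screen in C3RL4 cells: 6 h compound exposure with 1 uM retinol (final), viability from cellular ATP by luminescence.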
# [2] = qHTS assay to identify small molecule antagonists of the retinoic acid receptor (RAR) signaling pathway (AID 1159552; also: potency is read from the fitted curve at half-maximal effect; nearly all actives have a fitted effect of over 50% in size)
# In short: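 Luminescence from a RARE luciferase reporter in C3RL4 cells served as read-out. Cells received compounds together with 1 uM final retinol and incubated 6 hr at 37 C before detection reagent was added for 30 min at room temperature.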
# [3] = qHTS assay to identify small molecule agonists of the retinoic acid receptor (RAR) signaling pathway (AID 1159553); details: C3RL4 RARE luciferase reporter, agonist, 6 h; activation: at 73.3 µM (top of the series) unless noted; also: potency is read from the fitted curve at half-maximal effect
# In short: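 Agonist activity was scored in C3RL4 cells bearing a retinoic acid response element luciferase construct. Cells were treated with compounds for 6 hr at 37 C, and luciferase signal was measured as luminescence.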
# [4] = qHTS assay to identify small molecule agonists of the constitutive androstane receptor (CAR) signaling pathway - cell viability counter screen (AID 1224836); also: potency is read from the fitted curve at half-maximal effect; nearly all actives have a fitted effect of over 45% in size
# In short: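 Viability read-out: CellTiter-Fluor fluorescence after 23 h compound exposure at 37 C/5% CO2 in double-stable HepG2-CYP2B6-hCAR cells, with PK11195 present at 0.75 uM final; compounds tested in 15-point titration.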
# [5] = molecular target: Nuclear receptor subfamily 1 group I member 3 (Homo sapiens) (UniProt Q14994); assay: qHTS assay to identify small molecule antagonists of the constitutive androstane receptor (CAR) signaling pathway (AID 1224838); also: potency is read from the fitted curve at half-maximal effect; nearly all actives have a fitted effect of over 40% in size
# Chain of UniProt Q14994 (Q14994 whole entry, looked up): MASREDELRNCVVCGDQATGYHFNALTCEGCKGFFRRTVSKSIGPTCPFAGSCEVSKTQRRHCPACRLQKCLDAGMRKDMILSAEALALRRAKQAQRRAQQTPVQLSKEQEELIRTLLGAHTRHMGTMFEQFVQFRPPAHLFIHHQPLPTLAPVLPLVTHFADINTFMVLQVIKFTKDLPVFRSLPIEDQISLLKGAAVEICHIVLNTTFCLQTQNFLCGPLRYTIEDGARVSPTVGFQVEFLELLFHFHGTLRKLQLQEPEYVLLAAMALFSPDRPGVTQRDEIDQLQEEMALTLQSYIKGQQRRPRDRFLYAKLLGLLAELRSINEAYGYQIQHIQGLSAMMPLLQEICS
# In short: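 Compounds were titrated across 15 concentrations onto HepG2 cells double-stably expressing hCAR and a CYP2B6-2.2kb reporter, together with 50 nM CITCO (final). After 24 h at 37 C, luciferase activity was measured by luminescence.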
# [6] = qHTS assay to identify small molecule antagonists of the estrogen related receptor signaling pathway with the pleiotropic PPARgamma coactivator (PGC) from Tox21 10K library (AID 1224841; call rule not given here; also: potency is read from the fitted curve at half-maximal effect; actives are mostly falling curves and most rising ones were filed inactive; nearly all actives have a fitted effect of over 50% in size)
# In short: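 Antagonism in this quantitative HTS is taken from loss of luciferase signal in PGC/ERR cells. Cells (2,000/well) are treated with compounds in DMSO after a 6 h settling period and read by One-Glo luminescence after 18 h.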
# [7] = qHTS assay to identify small molecule antagonists of the estrogen related receptor (ERR) signaling pathway from Tox21 library - cell viability counter screen (AID 1224834); also: potency is read from the fitted curve at half-maximal effect; nearly all actives have a fitted effect of over 30% in size
# In short: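 Cytotoxicity of test substances is gauged in the same ERR cells used for the antagonist screen, after 17.5 h of compound treatment at 37 C, by CellTiter-Fluor fluorescence measured after 30 min.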
# [8] = qHTS assay to identify small molecule antagonists of the constitutive androstane receptor (CAR) signaling pathway - cell viability counter screen (AID 1224837); also: potency is read from the fitted curve at half-maximal effect; nearly all actives have a fitted effect of over 45% in size
# In short: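 Multiplexed cytotoxicity read-out for the CAR antagonist screen: double-stable HepG2-CYP2B6-hCAR cells co-treated with 50 nM CITCO (final) and compound over 15 concentrations, incubated 23 hr, then assessed by CellTiter-Fluor fluorescence.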
# [9] = qHTS assay to identify small molecule antagonists of the estrogen related receptor signaling pathway with the pleiotropic PPARgamma coactivator (PGC) from Tox21 10K library - cell viability counter screen (AID 1224840; active = well fitted cell-killing curve with a large enough effect in the repeat runs, not every such curve was filed as active; inconclusive = weak or mixed curves, or effect the other way; inactive = no such curve, though single readings can be large or run the other way; also: potency is read from the fitted curve at half-maximal effect; nearly all actives have a fitted effect of over 40% in size)
# In short: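 Step one, plate 2,000 PGC/ERR cells per well; step two, incubate 6 h at 37 C/5% CO2; step three, pin-transfer compounds; step four, incubate 17.5 h; step five, add CellTiter-Fluor and read fluorescence after 30 min.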
# [10] = molecular target: Thyrotropin receptor (Homo sapiens) (UniProt P16473); assay: qHTS assay to identify small molecule agonists of the thyroid stimulating hormone receptor (TSHR) signaling pathway (AID 1224843; calls by dose curve; also: nearly all actives have a fitted effect of over 45% in size; also: potency is read from the fitted curve at half-maximal effect; as to activation: % is scaled to controls: 0 for no effect and ±100 for the full control effect); details: TSHR-HEK293 cells, cAMP HTRF, agonist mode, 30 min; activation: at 92.4 µM (top of the series) unless noted
# Chain of UniProt P16473 (P16473 whole entry, looked up): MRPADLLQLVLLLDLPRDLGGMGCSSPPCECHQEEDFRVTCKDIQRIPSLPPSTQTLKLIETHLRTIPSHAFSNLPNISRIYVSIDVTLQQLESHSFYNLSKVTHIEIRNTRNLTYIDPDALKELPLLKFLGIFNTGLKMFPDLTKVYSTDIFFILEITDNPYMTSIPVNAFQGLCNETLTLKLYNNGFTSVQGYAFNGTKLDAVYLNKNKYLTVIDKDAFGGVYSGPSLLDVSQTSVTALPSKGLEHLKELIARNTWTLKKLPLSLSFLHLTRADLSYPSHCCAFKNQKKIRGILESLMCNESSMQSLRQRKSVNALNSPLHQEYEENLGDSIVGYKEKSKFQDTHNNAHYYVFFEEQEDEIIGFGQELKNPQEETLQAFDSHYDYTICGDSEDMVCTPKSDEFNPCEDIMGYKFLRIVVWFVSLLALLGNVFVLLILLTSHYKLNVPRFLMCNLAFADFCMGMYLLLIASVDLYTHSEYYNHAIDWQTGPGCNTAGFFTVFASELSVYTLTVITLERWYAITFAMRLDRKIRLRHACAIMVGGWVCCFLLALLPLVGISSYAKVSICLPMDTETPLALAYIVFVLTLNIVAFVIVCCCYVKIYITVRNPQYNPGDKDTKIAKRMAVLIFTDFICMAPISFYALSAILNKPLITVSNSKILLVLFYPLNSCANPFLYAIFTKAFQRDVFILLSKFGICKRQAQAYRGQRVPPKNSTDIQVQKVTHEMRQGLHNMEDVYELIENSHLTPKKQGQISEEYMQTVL
# In short: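 Screening of the Tox21 10K collection used HEK293 cells engineered with TSHR at 800 cells per well. After a 30-min room-temperature compound exposure, HTRF cAMP reagents were added and fluorescence recorded 1 h later.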
# [11] = qHTS assay to identify small molecule agonists of the hypoxia (HIF-1) signaling pathway - cell viability counter screen (AID 1224844; calls by dose curve; also: potency is read from the fitted curve at half-maximal effect; nearly all actives have a fitted effect of over 50% in size)
# In short: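 Tox21 10K compounds were added to HRE-bla ME-180 cells (0.5% dialyzed FBS) and incubated 17 hrs at 37C; ATP-based CellTiter-Glo luminescence then reported cell viability in the same wells.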
# [12] = qHTS assay to identify small molecule antagonists of the estrogen related receptor (ERR) signaling pathway - cell viability counter screen (AID 1224818);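 also: potency is read from the fitted curve at half-maximal effect; viability measured after 17.5 h of compound exposure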
# In short: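 Cells carrying the ERR pathway reporter were seeded and incubated for 6 hours before compound addition. After a 17.5-hour exposure at 37 C, live-cell protease activity was measured by CellTiter-Fluor fluorescence following 30 minutes of incubation.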
# [13] = qHTS assay to identify small molecule antagonists of the estrogen related receptor (ERR) signaling pathway (AID 1224819; also: potency is read from the fitted curve at half-maximal effect; nearly all actives have a fitted effect of over 50% in size)
# In short: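 Compounds dissolved in DMSO were pin-transferred onto ERR cells that had been plated 6 h earlier, and cells were then incubated 18 h at 37 C; signal was luciferase luminescence via One-Glo.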
# [14] = qHTS assay to identify small molecule agonists of the estrogen related receptor (ERR) signaling pathway (AID 1224820); details: ERR reporter cell line, luciferase agonist mode; at 46.1 µM (top of the series); also: % is scaled to controls: 0 for no effect and ±100 for the full control effect
# In short: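 ERR reporter cell line (from NTP), 2,000 cells/well, incubated 6 h before compound addition, then 18 h at 37 C. Luminescence measured 30 min after One-Glo reagent at room temperature.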
# [15] = system: estrogen-related receptor alpha (ERRalpha) with PGC-1alpha coactivator, human; assay: qHTS assay to identify small molecule antagonists of the estrogen related receptor signaling pathway with the pleiotropic PPARgamma coactivator (PGC) (AID 1224821; calls by dose curve)
# In short: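 PGC/ERR reporter cell line, plated 6 h before compound addition, then exposed 18 h at 37 °C. Luciferase activity read by luminescence 30 min after One-Glo addition; decrease indicates antagonism.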
# [16] = qHTS assay to identify small molecule antagonists of the estrogen related receptor signaling pathway with the pleiotropic PPARgamma coactivator (PGC) cell viability counter screen (AID 1224822;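 also: potency is read from the fitted curve at half-maximal effect; viability read after 17.5 h compound exposure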)
# In short: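 Seed PGC/ERR cells (2,000/well); incubate 6 h at 37 C/5% CO2; pin-transfer compounds in DMSO; incubate 17.5 h at 37 C; add CellTiter-Fluor; after 30 min read fluorescence.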
# [17] = molecular target: Luciferin 4-monooxygenase (Photinus pyralis) (UniProt P08659); assay: qHTS assay to identify small molecule inhibitors of firefly luciferase (AID 1224835); also: potency is read from the fitted curve at half-maximal effect; nearly all actives have a fitted effect of over 25% in size
# Chain of UniProt P08659 (P08659 whole entry, looked up): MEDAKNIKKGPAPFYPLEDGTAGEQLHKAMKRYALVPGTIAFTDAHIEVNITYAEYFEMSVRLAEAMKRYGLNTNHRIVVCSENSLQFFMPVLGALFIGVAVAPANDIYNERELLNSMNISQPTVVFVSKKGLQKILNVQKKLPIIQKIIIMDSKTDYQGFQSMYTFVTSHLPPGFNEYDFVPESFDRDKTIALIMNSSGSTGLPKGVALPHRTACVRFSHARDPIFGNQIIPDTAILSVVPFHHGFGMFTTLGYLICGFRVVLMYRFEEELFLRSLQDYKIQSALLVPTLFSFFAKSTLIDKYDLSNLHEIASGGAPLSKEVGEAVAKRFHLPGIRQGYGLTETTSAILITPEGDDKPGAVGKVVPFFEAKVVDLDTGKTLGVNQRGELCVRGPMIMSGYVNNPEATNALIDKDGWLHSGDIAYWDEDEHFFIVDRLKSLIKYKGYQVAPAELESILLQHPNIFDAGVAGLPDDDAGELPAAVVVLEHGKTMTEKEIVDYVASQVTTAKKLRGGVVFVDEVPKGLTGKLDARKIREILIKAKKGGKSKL
# In short: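 Inhibition of purified Photinus luciferase is measured by luminescence. Substrate levels (D-luciferin, ATP) sit at their KM values. Each compound is tested in a concentration series.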
# [18] = molecular target: Nuclear receptor subfamily 1 group I member 3 (Homo sapiens) (UniProt Q14994); assay: qHTS assay to identify small molecule agonists of the constitutive androstane receptor (CAR) signaling pathway (AID 1224839); also: potency is read from the fitted curve at half-maximal effect; nearly all actives have a fitted effect of over 15% in size
# In short: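 Luminescence read-out (ONE-Glo, 30 min, room temperature) from double-stable HepG2-CYP2B6-hCAR cells exposed 24 h to 15-point compound series in presence of 0.75 uM PK11195 final.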
# [19] = qHTS assay to identify small molecule agonists of the estrogen related receptor signaling pathway with the pleiotropic PPARgamma coactivator (PGC) from Tox21 10K library (AID 1224842); also: potency is read from the fitted curve at half-maximal effect; nearly all actives have a fitted effect of over 15% in size
# In short: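 Luminescence from One-Glo (30 min, room temperature) measured after PGC/ERR cells had 18 h at 37 C with pinned compound (23 nL in DMSO). Cells had been seeded at 2,000 per well and pre-incubated 6 h.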
# Tags tell the direction and shape of the fitted curve or compound fluorescence and quenching.
smiles,measurement,setting,value
CC/C(=C(\c1ccc(O)cc1)c1ccc(OCCN(C)C)cc1)c1ccccc1,Potency,[1],"inconclusive: 77.1 µM [cytotoxic, single point]"
same,Potency,[2],active: 68.7 µM
same,Potency,[3],"inconclusive: 38.6 µM [inhibitor, partial curve]"
same,Potency,[4],active: 68.7 µM
same,Potency,[5],"inconclusive: 77.1 µM [inhibitor, single point]"
same,Potency,[6],"inconclusive: 34.4 µM [falling, partial curve, poor fit]"
C#CC1(O)CC[C@H]2[C@@H]3CCC4=CCCC[C@@H]4[C@H]3CC[C@@]21C (stereo partly drawn),Potency,[1],active: 54.5 µM and active: 26.6 µM
same,Potency,[2],active: 48.6 µM and active: 23.7 µM
same,Potency,[3],"inconclusive: 68.6 µM [inhibitor, single point]"
same,Potency,[7],"active: 54.5 µM and inconclusive: 33.5 µM [cytotoxic, single point]"
same,Potency,[8],inconclusive: 68.6 µM [cytotoxic]
same,Potency,[9],"inconclusive: 61.1 µM [cytotoxic, partial curve] and active: 33.5 µM"
same,Potency,[10],"active: 19.3 µM and inconclusive: 7.5 µM [activator, partial curve]"
Nc1ccc(N)c2ccccc12,Potency,[1],active: 68.5 µM
same,Potency,[2],"inconclusive: 76.9 µM [inhibitor, single point]"
same,Potency,[3],"inconclusive: 8.63 µM [activator, partial curve]"
same,Potency,[4],active: 30.6 µM
same,Potency,[8],active: 30.6 µM
same,Potency,[5],"inconclusive: 54.4 µM [inhibitor, partial curve, poor fit]"
same,Potency,[11],active: 24.5 µM
C[n+]1cc2c3c(ccc2c2ccc4cc5c(cc4c21)OCO5)OCO3,Potency,[1],active: 3.66 µM
same,Potency,[2],active: 1.83 µM
same,Potency,[3],"inconclusive: 4.61 µM [inhibitor, full curve]"
same,Potency,[12],active: 2.87 µM
same,Potency,[13],active: 3.1 µM
same,activation,[14],inactive: -117%
same,Potency,[15],active: 2.28 µM
same,Potency,[16],active: 0.944 µM
same,Potency,[7],active: 2.91 µM
same,Potency,[17],active: 6.74 µM
same,Potency,[4],active: 2.91 µM
same,Potency,[9],active: 3.26 µM
same,Potency,[11],active: 2.61 µM
CCCC(c1cc(C(C)(C)C)c(O)cc1C)c1cc(C(C)(C)C)c(O)cc1C,Potency,[1],active: 27.6 µM
same,Potency,[2],active: 27.6 µM
same,Potency,[3],"inconclusive: 15.5 µM [inhibitor, full curve]"
same,Potency,[7],active: 19.6 µM
same,Potency,[4],active: 39 µM
same,Potency,[9],active: 22 µM
same,Potency,[10],active: 6.19 µM
same,Potency,[11],active: 9.89 µM
CCC(Cc1c(I)cc(I)c(N)c1I)C(=O)O (stereo not drawn),Potency,[1],inactive
same,Potency,[2],"inconclusive: 52.8 µM [inhibitor, partial curve, poor fit]"
same,Potency,[18],"inconclusive: 29.8 µM [activator, partial curve]"
same,Potency,[11],active: 42.3 µM and active: 15.1 µM
COc1ccc(CCN2CCC(Nc3nc4ccccc4n3Cc3ccc(F)cc3)CC2)cc1,Potency,[1],"active: 44.2 µM and inconclusive: 33.5 µM [cytotoxic, single point]"
same,Potency,[2],active: 2.11 µM
same,Potency,[3],"inconclusive: 3.13 µM [inhibitor, full curve] and inconclusive: 2.98 µM [inhibitor, full curve]"
same,Potency,[5],active: 17.6 µM and active: 26.6 µM
same,Potency,[9],active: 19.8 µM and active: 29.8 µM
same,Potency,[10],"inconclusive: 6.25 µM [activator, partial curve] and inactive"
same,Potency,[11],inconclusive: 19 µM [cytotoxic]
CC(C)(C)CC(C)(C)c1ccc(O)c(Cc2ccc(Cl)cc2Cl)c1,Potency,[1],active: 26.6 µM
same,Potency,[2],active: 13.3 µM
same,Potency,[3],"inconclusive: 16.8 µM [inhibitor, partial curve]"
same,Potency,[4],"inconclusive: 33.5 µM [cytotoxic, single point]"
same,Potency,[8],"inconclusive: 33.5 µM [cytotoxic, single point]"
same,Potency,[5],"inconclusive: 33.5 µM [inhibitor, single point]"
same,Potency,[9],active: 29.8 µM
CN(C[C@@H](CC[N+]12CCC(C3CCCCC3)(CC1)CC2)c1ccc(Cl)c(Cl)c1)C(=O)c1cc(C(F)(F)F)cc(C(F)(F)F)c1,Potency,[1],active: 54.5 µM
same,Potency,[2],inconclusive: 61.1 µM [inhibitor]
same,Potency,[3],"inconclusive: 68.6 µM [inhibitor, single point]"
same,Potency,[4],"inconclusive: 68.6 µM [cytotoxic, partial curve, poor fit]"
same,Potency,[8],active: 68.6 µM
same,Potency,[9],active: 30.6 µM
same,Potency,[19],"inconclusive: 0.0027 µM [activator, full curve, poor fit]"
same,Potency,[10],inconclusive: 61.1 µM [inhibitor]
same,Potency,[11],active: 19.5 µM
